# Results reported in the supplement of paper PMC8728848.
# Some of the results follow.
# Experiments:
# Assay in all cases: glycan array binding signal (z-score within array); higher = stronger binding
# Conditions in all cases: glycan notation: IUPAC condensed, linker removed
# [1] = target: Gal(b1-4)GalNAc(b1-3)[Fuc(a1-2)]Gal(b1-4)GlcNAc
# How it was run: (§1)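 Columns mapping to the same glycan were averaged after glycan names were converted to IUPAC-condensed notation. The data come from 3228 arrays in the Consortium for Functional Glycomics database, limited to those with an available protein sequence. Binding is reported as a within-array Z-score averaged across arrays of one protein sequence and across linkers.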
# Gal(b1-4)Glc = target: Gal(b1-4)Glc
# How it was run: as §1
# Gal(b1-4)Glc6S = target: Gal(b1-4)Glc6S
# How it was run: as §1
# Gal(b1-4)GlcNAc = target: Gal(b1-4)GlcNAc
# How it was run: as §1
# [2] = target: Gal(b1-4)GlcNAc(a1-6)Gal(b1-4)GlcNAc
# How it was run: as §1
# Gal(b1-4)GlcNAc(b1-2)Man = target: Gal(b1-4)GlcNAc(b1-2)Man
# How it was run: as §1
# [3] = target: Gal(b1-4)GlcNAc(b1-2)Man(a1-3)Man(b1-4)GlcNAc(b1-4)GlcNAc
# How it was run: as §1
# [4] = target: Gal(b1-4)GlcNAc(b1-2)Man(a1-3)[Gal(b1-4)GlcNAc(b1-2)Man(a1-6)]Man(b1-4)GlcNAc(b1-4)GlcNAc
# How it was run: as §1
# [5] = target: Gal(b1-4)GlcNAc(b1-2)Man(a1-3)[Gal(b1-4)GlcNAc(b1-2)Man(a1-6)]Man(b1-4)GlcNAc(b1-4)[Fuc(a1-6)]GlcNAc
# How it was run: as §1
# [6] = target: Gal(b1-4)GlcNAc(b1-2)Man(a1-3)[Gal(b1-4)GlcNAc(b1-2)Man(a1-6)][Gal(b1-4)GlcNAc(b1-4)]Man(b1-4)GlcNAc(b1-4)[Fuc(a1-6)]GlcNAc
# How it was run: as §1
# [7] = target: Gal(b1-4)GlcNAc(b1-2)Man(a1-3)[Gal(b1-4)GlcNAc(b1-2)Man(a1-6)][GlcNAc(b1-4)]Man(b1-4)GlcNAc(b1-4)[Fuc(a1-6)]GlcNAc
# How it was run: as §1
# [8] = target: Gal(b1-4)GlcNAc(b1-2)Man(a1-3)[GlcNAc(b1-2)Man(a1-6)]Man(b1-4)GlcNAc(b1-4)GlcNAc
# How it was run: as §1
# [9] = target: Gal(b1-4)GlcNAc(b1-2)Man(a1-3)[GlcNAc(b1-4)][Gal(b1-4)GlcNAc(b1-2)Man(a1-6)]Man(b1-4)GlcNAc(b1-4)GlcNAc
# How it was run: as §1
# [10] = target: Gal(b1-4)GlcNAc(b1-2)Man(a1-3)[Man(a1-6)]Man(b1-4)GlcNAc(b1-4)GlcNAc
# How it was run: as §1
# [11] = target: Gal(b1-4)GlcNAc(b1-2)Man(a1-6)Man(b1-4)GlcNAc(b1-4)GlcNAc
# How it was run: as §1
# [12] = target: Gal(b1-4)GlcNAc(b1-2)Man(a1-6)[GlcNAc(b1-2)Man(a1-3)]Man(b1-4)GlcNAc(b1-4)GlcNAc
# How it was run: as §1
# [13] = target: Gal(b1-4)GlcNAc(b1-2)Man(a1-6)[Man(a1-3)]Man(b1-4)GlcNAc(b1-4)GlcNAc
# How it was run: as §1
# [14] = target: Gal(b1-4)GlcNAc(b1-2)[Gal(b1-4)GlcNAc(b1-4)]Man(a1-3)[Gal(b1-4)GlcNAc(b1-2)Man(a1-6)]Man(b1-4)GlcNAc(b1-4)GlcNAc
# How it was run: as §1
# [15] = target: Gal(b1-4)GlcNAc(b1-2)[Gal(b1-4)GlcNAc(b1-4)]Man(a1-3)[Gal(b1-4)GlcNAc(b1-2)[Gal(b1-4)GlcNAc(b1-6)]Man(a1-6)]Man(b1-4)GlcNAc(b1-4)GlcNAc
# How it was run: as §1
# [16] = target: Gal(b1-4)GlcNAc(b1-2)[Gal(b1-4)GlcNAc(b1-4)]Man(a1-3)[GlcNAc(b1-4)][Gal(b1-4)GlcNAc(b1-2)Man(a1-6)]Man(b1-4)GlcNAc(b1-4)GlcNAc
# How it was run: as §1
# [17] = target: Gal(b1-4)GlcNAc(b1-2)[Gal(b1-4)GlcNAc(b1-4)]Man(a1-3)[GlcNAc(b1-4)][Gal(b1-4)GlcNAc(b1-2)[Gal(b1-4)GlcNAc(b1-6)]Man(a1-6)]Man(b1-4)GlcNAc(b1-4)GlcNAc
# How it was run: as §1
# [18] = target: Gal(b1-4)GlcNAc(b1-2)[Gal(b1-4)GlcNAc(b1-6)]Man(a1-6)[Gal(b1-4)GlcNAc(b1-2)Man(a1-3)]Man(b1-4)GlcNAc(b1-4)GlcNAc
# How it was run: as §1
binder,measurement,setting,value
"LBL-152 (Laetiporus bicolor), B0D650 (protein) MSNEYNPPLGIAFRLCGLASDRVLFSRVSPSPEVFHHPKSEVYPDQWFVAIPGSGQNAGCYAIKSKNTGKVLFSRMSPDPRVGHIDGDGKYPDNWFKFEAGSGKYAGYFRLRAVASDTVLVSRTSTGTDTQVINYPATSAKYDDQYFTILFDHHHHHH",glycan array binding signal (z-score),[1],-0.156
same,glycan array binding signal (z-score),Gal(b1-4)Glc,-0.156
same,glycan array binding signal (z-score),Gal(b1-4)Glc6S,-0.155
same,glycan array binding signal (z-score),Gal(b1-4)GlcNAc,-0.156
same,glycan array binding signal (z-score),[2],-0.153
same,glycan array binding signal (z-score),Gal(b1-4)GlcNAc(b1-2)Man,-0.148
same,glycan array binding signal (z-score),[3],-0.155
same,glycan array binding signal (z-score),[4],-0.113
same,glycan array binding signal (z-score),[5],-0.144
same,glycan array binding signal (z-score),[6],-0.01
same,glycan array binding signal (z-score),[7],0.48
same,glycan array binding signal (z-score),[8],-0.158
same,glycan array binding signal (z-score),[9],-0.138
same,glycan array binding signal (z-score),[10],-0.152
same,glycan array binding signal (z-score),[11],-0.156
same,glycan array binding signal (z-score),[12],-0.156
same,glycan array binding signal (z-score),[13],-0.156
same,glycan array binding signal (z-score),[14],0.149
same,glycan array binding signal (z-score),[15],-0.033
same,glycan array binding signal (z-score),[16],-0.081
same,glycan array binding signal (z-score),[17],-0.066
same,glycan array binding signal (z-score),[18],-0.135
